Assay results as given in patent US8618101B2, “N-((1R,2S,5R)-5-(tert-butylamino)-2-((S)-3-(7-tert-butylpyrazolo[1,5-a][1,3,5]triazin-4-ylamino)-2-oxopyrrolidin-1-yl)cyclohexyl)acetamide, a dual modulator of chemokine receptor activity, crystalline forms and processes” (Bristol-Myers Squibb Company, priority 2009, dated 2013).

Tested on: Sodium Channel, Site 2
Details: 30,000 nM

CC(=O)N[C@@H]1C[C@H](NC(C)(C)C)CC[C@@H]1N1CC[C@H](Nc2ncnc3cc(C(C)(C)C)nn23)C1=O [Example 1, N-((1R,2 S,5R)-5-(tert-Butylamino)-2-((S)-3-(7-tert-butylpyrazolo[1,5-a][1,3,5]triazin-4-ylamino)-2-oxopyrrolidin-1-yl)cyclohexyl)acetamide]
Na+ channel binding (% inhibition): 46%, 30,000
